System: E. coli C
Test: E. coli C aggregation assay
Conditions: high salt, low temperature, amino acid starvation
Excerpt: Previously determined by Krol et al., E. coli C, under certain stress conditions, aggregates together and forms biofilms from a planktonic culture. This process is proposed to work under a CsrA stress response. In the case of E. coli C, the level of CsrA expression is lower due to the presence of an insertion sequence in its promoter. Because RelA is essential in the production of (p)ppGpp in inducing CsrA stress response, it was hypothesized that inhibition of RelA would limit aggregation of E. coli C. […] This aggregation process is proposed to be controlled by the CsrA/NhaR mechanism through overproduction of polysaccharide adhesin poly-β-1,6-N-acetyl-d-glucosamine (FIG. 31). However, more studies need to be performed to confirm RelA and (p)ppGpp involvement in the aggregation effect, including in the ΔrelA E. coli C mutant.
E. coli C was grown in LB Miller broth at 30° C. with shaking (250 rpm) with or without compounds. E. coli C ΔrelA mutant was also grown as a control. One milliliter of the culture was transferred to standard polypropylene spectrophotometer cuvettes to measure planktonic cells densities (OD600). Remaining cultures were vortexed ˜1 min and 1 mL was aliquoted into cuvettes to measure the total cell densities (OD600). Aggregation was calculated as a ratio of planktonic to total cell density.

SMILES: O=C(O)CCNC(=O)c1cccc(-n2cc(Br)cn2)c1 [Compound C22, 3-(3-(4-bromo-1H-pyrazol-1-yl)benzamido)propanoic acid]
- E. coli C aggregation: reduced the amount of E. coli C aggregation

Source: patent US20240390337A1, “RELA/RSH INHIBITORS FOR THE TREATMENT OR PREVENTION OF MEDICAL BIOFILMS” (DREXEL UNIVERSITY, priority 2021, published 2024)
